PubChem BioAssay AID488969 (Vanderbilt High Throughput Screening Facility, 2010)
Over roughly 110,000 compounds, “z-score” has its median near -0.1; the highest 2% begin near 2. The list shows a part of the results. Active and inactive are the calls of the source.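 How the source made its calls: active means z-score in the third read window above 3 or below -3; inactive means the rest.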

What follows are molecules tested against Metabotropic glutamate receptor 8 (Rattus norvegicus) (UniProt P70579) (assay: rat mGluR8 modulators via GIRK flux, primary screen, cell-based, thallium flux, HTS (AID 488969)). Details: HEK293 rat mGluR8, GIRK (G protein-gated inwardly rectifying potassium channel) thallium flux, FluoZin2; at 10 µM; stronger effect = higher value; submaximal glutamate (EC20) added with thallium.
Sequence of UniProt P70579 (P70579 whole entry, looked up): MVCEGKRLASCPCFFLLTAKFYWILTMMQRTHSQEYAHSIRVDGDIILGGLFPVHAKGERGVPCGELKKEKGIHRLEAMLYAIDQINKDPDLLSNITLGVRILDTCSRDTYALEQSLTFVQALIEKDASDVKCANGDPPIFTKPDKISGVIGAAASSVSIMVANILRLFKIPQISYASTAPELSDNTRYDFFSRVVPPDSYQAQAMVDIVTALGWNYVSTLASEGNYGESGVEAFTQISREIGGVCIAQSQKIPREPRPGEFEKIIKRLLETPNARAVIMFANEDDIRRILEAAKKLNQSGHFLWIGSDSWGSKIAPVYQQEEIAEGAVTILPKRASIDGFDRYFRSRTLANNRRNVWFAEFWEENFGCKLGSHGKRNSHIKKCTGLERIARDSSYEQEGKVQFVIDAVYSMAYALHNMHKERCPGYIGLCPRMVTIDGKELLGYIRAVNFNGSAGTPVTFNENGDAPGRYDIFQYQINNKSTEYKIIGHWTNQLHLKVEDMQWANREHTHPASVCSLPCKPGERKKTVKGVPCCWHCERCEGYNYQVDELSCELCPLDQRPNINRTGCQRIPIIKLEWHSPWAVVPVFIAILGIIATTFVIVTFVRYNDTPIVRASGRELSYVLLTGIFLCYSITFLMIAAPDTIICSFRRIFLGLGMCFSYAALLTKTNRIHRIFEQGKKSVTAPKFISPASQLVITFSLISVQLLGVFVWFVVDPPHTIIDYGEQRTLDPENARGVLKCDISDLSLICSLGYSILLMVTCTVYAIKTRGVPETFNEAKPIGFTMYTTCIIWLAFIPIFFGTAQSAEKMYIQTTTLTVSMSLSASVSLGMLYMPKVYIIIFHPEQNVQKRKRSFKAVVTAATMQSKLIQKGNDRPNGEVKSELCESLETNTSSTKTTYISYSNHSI
Molecule `CCCCCCOC(=O)C(C#N)c1nc2ccccc2nc1N1CCCCC1` (configuration not stated) has a z-score of -0.00593.
`COc1ccc(CC(=O)NC(C)(C)C)cc1S(=O)(=O)N1CCOCC1` was tested, and the z-score was -0.00904.
`COC(=O)c1cc(Cl)c(NC(=O)/C=C/c2ccc(Cl)cc2Cl)cc1OC` was tested, and the z-score was -0.186.
`CCOc1ccc(C2=[N+]([O-])C(C)(C)N(O)C2(C)C)cc1` showed a z-score of 0.0752.
In the case of `COc1ccccc1C(=O)NCCc1nc2ccccc2[nH]1`, the z-score is reported as 0.0888.
Molecule `O=C(Nc1ccc2c(c1)OCO2)c1ccc(Cl)nc1` has a z-score of -0.782.
`CC(C)C(NS(=O)(=O)c1ccc2c(c1)OCCO2)C(=O)NCCc1ccccn1` (configuration not stated) showed a z-score of 0.0748.
`Cc1ccc(S(=O)(=O)Nc2nncs2)cc1` was tested, and the z-score was 0.0436.
`CCCCNC(=O)CS(=O)Cc1nc(-c2cccc(C)c2)oc1C` (configuration not stated) gave a z-score of -0.163.
Molecule `Nc1cc(=O)[nH]c(SCC(=O)N2CCc3ccccc3C2)n1` has a z-score of -0.182.
For `O=C(NC(=S)Nc1ccccc1N1CCCC1)c1ccc(-c2cccc([N+](=O)[O-])c2)o1`, the z-score was active: 5.71.
In the case of `Cn1cc(S(=O)(=O)N2CCN(c3ccc(F)cc3)CC2)c(=O)n(C)c1=O`, the z-score is reported as 0.112.
`Nc1c(-c2ccc(Cl)cc2)nnn1-c1ccccc1` gave a z-score of -0.144.
Molecule `CCS(=O)(=O)N1CCC(C(=O)NCc2cccs2)CC1` has a z-score of 0.227.
`CCN(CC)CCNC(=O)C1CCC(=O)N1CCc1ccccc1` (configuration not stated) gave a z-score of -0.348.
For `Cc1occc1C(=O)NNC(=O)c1ccc(F)cc1`, the z-score was 0.382.
`Cc1cc([N+](=O)[O-])nn1CCCC(=O)N1CCN(c2ccccc2)CC1` showed a z-score of -0.0396.
In the case of `CCOC(=O)CNC(=O)CNC(=O)c1ccc(OCC(C)C)cc1`, the z-score is reported as 0.297.
Work on `CCOc1ccc(C(NC(=O)/C=C/c2ccco2)c2ccc(OC)c(OC)c2)cc1` (configuration not stated) yielded a z-score of 0.073.
Molecule `O=C(c1cccnc1)N1CCC(c2nc3ccccc3[nH]2)CC1` has a z-score of 0.91.
Work on `Cc1ccccc1Cn1cnc2c([N+](=O)[O-])c(C)c(C)cc21` yielded a z-score of -1.13.
With `Cc1cccc(Cl)c1OCCCCn1ccnc1` the z-score was 0.296.
`CCn1c(CSCc2ccc(F)cc2)nnc1SCC(=O)N1CCN(c2ccccc2)CC1` was tested, and the z-score was -0.278.
`COc1ccc(CC(NC(=O)c2ccccc2)C(=O)NCC(=O)O)cc1` (configuration not stated) gave a z-score of 0.374.
In the case of `O=C(NCc1nc(-c2ccccc2)no1)c1cccs1`, the z-score is reported as -0.0454.
In the case of `Cc1cccc(OCC(=O)Nc2ccc(N3CCN(S(C)(=O)=O)CC3)cc2)c1C`, the z-score is reported as 0.0465.
Work on `CCOc1ccccc1C(=O)N1CCCCC1C` (configuration not stated) yielded a z-score of -2.42.
`C=C(C)Cn1c(N(CCO)Cc2ccccc2)nc2c1c(=O)[nH]c(=O)n2C` showed a z-score of -0.125.
Molecule `N#CC1(C#N)C(C(N)=O)C1c1ccccc1` (configuration not stated) has a z-score of -0.103.
With `O=C1c2ccccc2NC2(CCCCC2)N1N=C1CCCCC1` the z-score was -0.197.
`O=S(=O)(Cc1ccccc1)N1CCC(c2nc(-c3cccs3)no2)CC1` gave a z-score of -0.342.
Molecule `COc1ccc(/C=C/C(=O)c2ccc[nH]2)c(OC)c1OC` has a z-score of -0.661.
